The whole screen tested about 48,000 compounds, of which about 450 (0.94%) were called active. About 19% were inconclusive and are not listed. Calls follow the shape of the dose curve; as a rule, active = well fitted inhibition curve with a large enough effect; inconclusive = small, poorly fitted or top-dose-only effect; inactive = no such curve, though single readings can be large or run the other way. The list shows a part of the results.

This assay can be described thus: Primary qHTS for Identification of Small Molecule Inhibitors of Huntingtin Promoter Activity. Also: nearly all actives have a fitted effect of over 50% in size. The following applies: HEK293 HTT promoter firefly luciferase reporter (activity 0% = vehicle and -100% = no light), 24 h; series mostly up to 57.5 µM; activity change, negative = inhibition: at the top concentration. The method, boiled down: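 Quantitative HTS used concentration series of up to 57.5 uM final on HEK293 luciferase reporter cells, 24 h at 37 degrees C. Readout was Dual-Glo firefly luminescence.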
(In general: In qHTS, concentration-response curves come from the screen itself.)
`CCCCCn1c(=O)[nH]c2cc(C(=O)N3CCN(c4ccccc4F)CC3)ccc2c1=O`: the “activity change, negative = inhibition” value is inactive: -27.2%.
On to `CCOC(=O)c1[nH]c2ccccc2c1NC(=O)c1ccc(OCC)cc1`, for which the “activity change, negative = inhibition” value is inactive: -4.12%.
For `Cc1ccc(-n2ncc3c(NCCCn4ccnc4)ncnc32)cc1` the value was inactive: -22.3%.
For `Cc1ccc(NC(=O)c2cc(-c3cccs3)on2)cc1C` the value was inactive: 63.3%; for `CCN1CCN(CCCNC(=O)c2cnn(-c3ccc(C)cc3)c2C2CCN(C(=O)OC(C)(C)C)CC2)CC1`, inactive: -1.98%.
The figure for `COc1nccc(-c2c(-c3ccc(F)cc3)ncn2C2CCC(O)CC2)n1` (stereo unspecified) is inactive: -1.63%; for `COc1cccc(-n2c(SCC(=O)Nc3ccc(F)cc3F)nc3c([nH]c4ccccc43)c2=O)c1` it is inactive: -39.6%.
For `COc1ccccc1CNC(=O)c1cccc(NC(=O)N2CCSc3ncccc32)c1`, the “activity change, negative = inhibition” value was inactive: -18.1%.
For `COc1cc(-c2nc3cccc(C)n3c2Nc2ccc3c(c2)OCCO3)ccc1O` the value was inactive: 1.95%; for `CCCCOC(=O)c1ccc(NC(=O)CSc2nc3c(c(=O)[nH]2)CCC3)cc1`, inactive: -29%.
The figure for `COc1ccc(CCNC(=O)c2ccc(Cn3c(=O)c4ccccc4n(Cc4ccccc4Cl)c3=O)cc2)cc1OC` is inactive: -9.12%.
As for `CCOc1cc(-c2ccc(OC(=O)c3ccc(Cl)cc3)c(OC)c2)cc(=O)c2c(C)oc(C)c12`, the “activity change, negative = inhibition” value was inactive: 11.6%.
The figure for `Cc1c(C(=O)NCc2ccc(F)cc2)sc2nc(-c3ccccc3)cn12` is inactive: -18.6%; for `Cc1nnc(N2C(=O)c3oc4ccccc4c(=O)c3C2c2ccc(F)cc2)s1` (stereo unspecified) it is inactive: 0.556%.
The figure for `Oc1c(C(c2ccc(Cl)cc2)N2CCCC2)sc2nc(-c3ccco3)nn12` (stereo unspecified) is inactive: 24.2%; for `CCOc1ccccc1C(=O)NCC(c1ccc(N(C)C)cc1)N1CCc2ccccc21` (stereo unspecified) it is inactive: -28.6%; for `Cc1ccc(Cl)cc1NC(=O)c1cc(-c2ccc3c(c2)OCCO3)on1` it is inactive: 11.9%.
`Cc1cccc(NC(=O)CN(C)S(=O)(=O)c2cnc[nH]2)c1C`: the “activity change, negative = inhibition” value is inactive: -2.79%.
Regarding `Cc1cc(C)c(NC(=O)CN2C(=O)CCn3nc(-c4cccn4C)cc32)c(C)c1`, the “activity change, negative = inhibition” value was inactive: -23.6%.
The figure for `Cc1ccc(-n2ncc(C(=O)NCCCN3CCN(C)CC3)c2C2CCN(C(=O)OC(C)(C)C)CC2)cc1` is inactive: 1.74%; for `CCCCNc1cc(N2CCN(C3CCCCC3)CC2)c2noc3c2c1C(=O)c1ccccc1-3` it is inactive: 4.18%; for `CCCCC(=O)N1CCN(c2nc3c(C)c(C)ccc3s2)CC1` it is inactive: -19.1%.
For `Cc1cc(C)c(NC(=O)CSc2cn(CC(=O)N3CCOCC3)c3ccccc23)c(C)c1` the value was inactive: -15.4%; for `COc1cccc(Cn2c(=O)n(CC3CCC(C(=O)N4CCOCC4)CC3)c(=O)c3sccc32)c1` (stereo unspecified), inactive: -24.3%.
Take `Cc1oc2ncn(CC(C)C)c(=O)c2c1C(=O)NCCCN1CCCCC1C` (stereo unspecified): the “activity change, negative = inhibition” value is inactive: 0%.
The figure for `Cc1cc(C)c2c(n1)SCC(=O)N2CC(=O)Nc1cccc(C)c1C` is inactive: -25.2%.

(Values after PubChem BioAssay AID1508623 (National Center for Advancing Translational Sciences (NCATS), 2021).)
